Data published in patent US20260193238A1, “PHARMACEUTICAL COMPOUNDS AS PARP7 AND/OR PARP1 INHIBITORS” (Duke Street Bio Limited, priority 2022, published 2026).

Target: T1, PARP7 (amino acids 456-657) (Homo sapiens, UniProt Q7Z3E1)
T1 sequence (Q7Z3E1 456-657): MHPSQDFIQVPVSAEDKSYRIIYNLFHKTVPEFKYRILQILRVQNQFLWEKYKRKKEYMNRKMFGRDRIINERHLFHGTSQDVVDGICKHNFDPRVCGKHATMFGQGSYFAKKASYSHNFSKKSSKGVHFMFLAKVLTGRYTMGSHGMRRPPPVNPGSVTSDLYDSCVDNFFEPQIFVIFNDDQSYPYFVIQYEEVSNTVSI
Test: PARP7 biochemical DELFIA assay (auto-MARylation)
Conditions: Table 1

O=C(CCN1CCCC1c1cc(C(F)(F)F)c(=O)[nH]n1)N1CCN(c2ncc(C(F)(F)F)cn2)CC1 (single isomer, unassigned) [Compound 18a, 6-(1-(3-oxo-3-(4-(5-(trifluoromethyl)pyrimidin-2-yl)piperazin-1-yl)propyl)pyrrolidin-2-yl)-4-(trifluoromethyl)pyridazin-3(2H)-one] gave an IC50 of at most 10 nM.
